Source: the supplement of paper PMC8728848
The list shows a part of the results.

Columns and labels:
Test in all cases: glycan array binding signal (z-score within array); higher = stronger binding
Conditions in all cases: glycan notation: IUPAC condensed, linker removed
Fuc(a1-2)Gal = target: Fuc(a1-2)Gal
Procedure, shortened: (§1)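 Arrays were curated from the Consortium for Functional Glycomics database, 3228 in total, and kept only where the protein sequence was available. Binding is expressed as a within-array Z-score. This score was averaged across arrays of the same protein sequence at different concentrations or buffers and across linkers, and negative values can be read as non-binding.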

Fuc(a1-2)Gal(b1-3)GalNAc = target: Fuc(a1-2)Gal(b1-3)GalNAc
Procedure, shortened: as §1

[1] = target: Fuc(a1-2)Gal(b1-3)GalNAc(b1-3)Gal
Procedure, shortened: as §1

[2] = target: Fuc(a1-2)Gal(b1-3)GalNAc(b1-3)Gal(a1-4)Gal(b1-4)Glc
Procedure, shortened: as §1

[3] = target: Fuc(a1-2)Gal(b1-3)GalNAc(b1-4)[Neu5Ac(a2-3)]Gal(b1-4)Glc
Procedure, shortened: as §1

Fuc(a1-2)Gal(b1-3)GlcNAc = target: Fuc(a1-2)Gal(b1-3)GlcNAc
Procedure, shortened: as §1

[4] = target: Fuc(a1-2)Gal(b1-3)GlcNAc(b1-3)Gal(b1-4)Glc
Procedure, shortened: as §1

[5] = target: Fuc(a1-2)Gal(b1-3)[Fuc(a1-4)]GlcNAc
Procedure, shortened: as §1

Fuc(a1-2)Gal(b1-4)Glc = target: Fuc(a1-2)Gal(b1-4)Glc
Procedure, shortened: as §1

Fuc(a1-2)Gal(b1-4)Glc6S = target: Fuc(a1-2)Gal(b1-4)Glc6S
Procedure, shortened: as §1

Fuc(a1-2)Gal(b1-4)GlcNAc = target: Fuc(a1-2)Gal(b1-4)GlcNAc
Procedure, shortened: as §1

[6] = target: Fuc(a1-2)Gal(b1-4)GlcNAc(b1-3)Gal(b1-4)GlcNAc
Procedure, shortened: as §1

[7] = target: Fuc(a1-2)Gal(b1-4)GlcNAc(b1-3)Gal(b1-4)GlcNAc(b1-3)Gal(b1-4)GlcNAc
Procedure, shortened: as §1

[8] = target: Fuc(a1-2)Gal(b1-4)GlcNAc6S
Procedure, shortened: as §1

[9] = target: Fuc(a1-2)Gal(b1-4)[Fuc(a1-3)]GlcNAc
Procedure, shortened: as §1

[10] = target: Fuc(a1-2)Gal(b1-4)[Fuc(a1-3)]GlcNAc(b1-3)Gal(b1-4)[Fuc(a1-3)]GlcNAc
Procedure, shortened: as §1

[11] = target: Fuc(a1-2)Gal(b1-4)[Fuc(a1-3)]GlcNAc(b1-3)Gal(b1-4)[Fuc(a1-3)]GlcNAc(b1-3)Gal(b1-4)[Fuc(a1-3)]GlcNAc
Procedure, shortened: as §1

Fuc(a1-2)Gal6S(b1-4)Glc = target: Fuc(a1-2)Gal6S(b1-4)Glc
Procedure, shortened: as §1

[12] = target: Fuc(a1-2)Gal6S(b1-4)Glc6S
Procedure, shortened: as §1

[13] = target: Fuc(a1-2)Gal6S(b1-4)GlcNAc
Procedure, shortened: as §1

Fuc(a1-2)[Gal(a1-3)]Gal = target: Fuc(a1-2)[Gal(a1-3)]Gal
Procedure, shortened: as §1

[14] = target: Fuc(a1-2)[Gal(a1-3)]Gal(b1-3)GlcNAc
Procedure, shortened: as §1

[15] = target: Fuc(a1-2)[Gal(a1-3)]Gal(b1-4)Glc
Procedure, shortened: as §1

[16] = target: Fuc(a1-2)[Gal(a1-3)]Gal(b1-4)GlcNAc
Procedure, shortened: as §1

[17] = target: Fuc(a1-2)[Gal(a1-3)]Gal(b1-4)[Fuc(a1-3)]GlcNAc
Procedure, shortened: as §1

[18] = target: Fuc(a1-2)[Gal(a1-4)]Gal(b1-4)GlcNAc
Procedure, shortened: as §1

[19] = target: Fuc(a1-2)[GalNAc(a1-3)]Gal
Procedure, shortened: as §1

[20] = target: Fuc(a1-2)[GalNAc(a1-3)]Gal(b1-3)GlcNAc
Procedure, shortened: as §1

[21] = target: Fuc(a1-2)[GalNAc(a1-3)]Gal(b1-4)Glc
Procedure, shortened: as §1

[22] = target: Fuc(a1-2)[GalNAc(a1-3)]Gal(b1-4)GlcNAc
Procedure, shortened: as §1

[23] = target: Fuc(a1-2)[GalNAc(a1-3)]Gal(b1-4)[Fuc(a1-3)]GlcNAc
Procedure, shortened: as §1

[24] = target: Fuc(a1-2)[GalNAc(a1-4)]Gal(b1-4)GlcNAc
Procedure, shortened: as §1

[25] = target: Fuc(a1-2)[GalNAc(b1-3)]Gal
Procedure, shortened: as §1

Fuc(a1-3)GlcNAc = target: Fuc(a1-3)GlcNAc
Procedure, shortened: as §1

[26] = target: Fuc(a1-3)[Gal(b1-4)]Glc6S
Procedure, shortened: as §1

[27] = target: Fuc(a1-3)[Gal(b1-4)]GlcNAc
Procedure, shortened: as §1

[28] = target: Fuc(a1-3)[Gal(b1-4)]GlcNAc(b1-2)Man(a1-3)[Fuc(a1-3)[Gal(b1-4)]GlcNAc(b1-2)Man(a1-6)]Man(b1-4)GlcNAc(b1-4)GlcNAc
Procedure, shortened: as §1

[29] = target: Fuc(a1-3)[Gal(b1-4)]GlcNAc(b1-2)Man(a1-6)[Gal(b1-4)GlcNAc(b1-2)Man(a1-3)]Man(b1-4)GlcNAc(b1-4)GlcNAc
Procedure, shortened: as §1

[30] = target: Fuc(a1-3)[Gal(b1-4)]GlcNAc(b1-3)Gal(b1-3)[Fuc(a1-4)]GlcNAc
Procedure, shortened: as §1

[31] = target: Fuc(a1-3)[Gal(b1-4)]GlcNAc(b1-4)Gal(b1-4)[Fuc(a1-3)]GlcNAc
Procedure, shortened: as §1

[32] = target: Fuc(a1-3)[Gal(b1-4)]GlcNAc(b1-4)Gal(b1-4)[Fuc(a1-3)]GlcNAc(b1-4)Gal(b1-4)[Fuc(a1-3)]GlcNAc
Procedure, shortened: as §1

[33] = target: Fuc(a1-3)[Gal(b1-4)]GlcNAc6S
Procedure, shortened: as §1

[34] = target: Fuc(a1-3)[Gal3S(b1-4)]Glc6S
Procedure, shortened: as §1

[35] = target: Fuc(a1-3)[Gal3S(b1-4)]GlcNAc
Procedure, shortened: as §1

[36] = target: Fuc(a1-3)[Gal3S(b1-4)]GlcNAc6S
Procedure, shortened: as §1

B1: Angptl4 (Homo sapiens), Q9BY76 (protein)
chain: MSGAPTAGAALMLCAATAVLLSAQGGPVQSKSPRFASWDEMNVLAHGLLQLGQGLREHAERTRSQLSALERRLSACGSACQGTEGSTDLPLAPESRVDPEVLHSLQTQLKAQNSRIQQLFHKVAQQQRHLEKQHLRIQHLQSQFGLLDHKHLDHEVAKPARRKRLPEMAQPVDPAHNVSRLHRLPRDCQELFQVGERQSGLFEIQPQGSPPFLVNCKMTSDGGWTVIQRRHDGSVDFNRPWEAYKAGFGDPHGEFWLGLEKVHSITGDRNSRLAVQLRDWDGNAELLQFSVHLGGEDTAYSLQLTAPVAGQLGATTVPPSGLSVPFSTWDQDHDLRRDKNCAKSLSGGWWFGTCSHSNLNGQYFRSIPQQRQKLKKGIFWKTWRGRYYPLQATTMLIQPMAAEAAS
Q: With B1 as the binder, how does the “glycan array binding signal (z-score)” value (Fuc(a1-2)Gal) read?
A: -0.084

Q: And the “glycan array binding signal (z-score)” value (Fuc(a1-2)Gal(b1-3)GalNAc)?
A: -0.122

Q: What about the “glycan array binding signal (z-score)” value [1] of the same binder?
A: 5.26

Q: What about the “glycan array binding signal (z-score)” value [2] of the same binder?
A: -0.105

Q: What about the “glycan array binding signal (z-score)” value [3] of the same binder?
A: -0.11

Q: And the “glycan array binding signal (z-score)” value (Fuc(a1-2)Gal(b1-3)GlcNAc)?
A: -0.55

Q: And the “glycan array binding signal (z-score)” value [4]?
A: -0.134

Q: And the “glycan array binding signal (z-score)” value [5]?
A: 0.847

Q: And the “glycan array binding signal (z-score)” value (Fuc(a1-2)Gal(b1-4)Glc)?
A: 0.088

Q: What about the “glycan array binding signal (z-score)” value (Fuc(a1-2)Gal(b1-4)Glc6S) of the same binder?
A: -0.343

Q: And the “glycan array binding signal (z-score)” value (Fuc(a1-2)Gal(b1-4)GlcNAc)?
A: -0.071

Q: What about the “glycan array binding signal (z-score)” value [6] of the same binder?
A: -0.396

Q: And the “glycan array binding signal (z-score)” value [7]?
A: 0.616

Q: What about the “glycan array binding signal (z-score)” value [8] of the same binder?
A: 0.465

Q: What about the “glycan array binding signal (z-score)” value [9] of the same binder?
A: -0.311

Q: What about the “glycan array binding signal (z-score)” value [10] of the same binder?
A: -0.246

Q: And the “glycan array binding signal (z-score)” value [11]?
A: -0.407

Q: And the “glycan array binding signal (z-score)” value (Fuc(a1-2)Gal6S(b1-4)Glc)?
A: -0.253

Q: And the “glycan array binding signal (z-score)” value [12]?
A: -0.059

Q: What about the “glycan array binding signal (z-score)” value [13] of the same binder?
A: -0.479

Q: And the “glycan array binding signal (z-score)” value (Fuc(a1-2)[Gal(a1-3)]Gal)?
A: -0.253

Q: And the “glycan array binding signal (z-score)” value [14]?
A: 0.242

Q: What about the “glycan array binding signal (z-score)” value [15] of the same binder?
A: -0.199

Q: And the “glycan array binding signal (z-score)” value [16]?
A: 0.087

Q: What about the “glycan array binding signal (z-score)” value [17] of the same binder?
A: -0.192

Q: What about the “glycan array binding signal (z-score)” value [18] of the same binder?
A: -0.112

Q: And the “glycan array binding signal (z-score)” value [19]?
A: -0.107

Q: What about the “glycan array binding signal (z-score)” value [20] of the same binder?
A: 0.292

Q: What about the “glycan array binding signal (z-score)” value [21] of the same binder?
A: 0.454

Q: What about the “glycan array binding signal (z-score)” value [22] of the same binder?
A: -0.08

Q: What about the “glycan array binding signal (z-score)” value [23] of the same binder?
A: 0.505

Q: What about the “glycan array binding signal (z-score)” value [24] of the same binder?
A: 0.077

Q: And the “glycan array binding signal (z-score)” value [25]?
A: -0.203

Q: And the “glycan array binding signal (z-score)” value (Fuc(a1-3)GlcNAc)?
A: -0.446

Q: What about the “glycan array binding signal (z-score)” value [26] of the same binder?
A: 0.018

Q: What about the “glycan array binding signal (z-score)” value [27] of the same binder?
A: -0.053

Q: And the “glycan array binding signal (z-score)” value [28]?
A: 0.691

Q: And the “glycan array binding signal (z-score)” value [29]?
A: 2.57

Q: What about the “glycan array binding signal (z-score)” value [30] of the same binder?
A: -0.371

Q: And the “glycan array binding signal (z-score)” value [31]?
A: 0.1

Q: What about the “glycan array binding signal (z-score)” value [32] of the same binder?
A: 0.218

Q: And the “glycan array binding signal (z-score)” value [33]?
A: -0.527

Q: What about the “glycan array binding signal (z-score)” value [34] of the same binder?
A: -0.178

Q: And the “glycan array binding signal (z-score)” value [35]?
A: -0.009

Q: What about the “glycan array binding signal (z-score)” value [36] of the same binder?
A: -0.342
